Experimental findings from PubChem BioAssay AID1159614 (National Center for Advancing Translational Sciences (NCATS), 2016) are described below.

Each structure is given as a SMILES string. Out of some 45,000 compounds screened, about 65 (0.1%) were called active. Calls come from the whole dose curve; as a rule, active = well fitted activation curve with a large enough effect; inconclusive = small, poorly fitted or top-dose-only effect; inactive = no such curve, though single readings can be large or run the other way. The list shows a part of the results.

The target of the experiment is Galactocerebrosidase (Homo sapiens) (UniProt P54803). The experiment in a line: A Novel Cell-Based Assay to Identify Small Molecules for B -Galactocerebrosidase. Note: 0% is about no effect; nearly all actives have a fitted effect of over 65% in size. As to conditions: 145M-Twi-hGALC-G270D cells (Twitcher mouse brain line with human GALC G270D), HMU-beta-Gal fluorescence, 48 h; series mostly up to 57.5 µM; activation: at the top concentration. Put shortly: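 Fluorogenic HMU-b-Gal hydrolysis (0.1 mM final, pH 5.2 citrate-phosphate with 1 mg/mL sodium taurocholate; carbonate stop buffer) measures mutant GALC activity after compound treatment of live 145M-Twi Twitcher brain cells stably carrying human GALC-G270D, with wild-type GALC line alongside; activation sought.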
UniProt P54803, sequence (P54803 whole entry, looked up): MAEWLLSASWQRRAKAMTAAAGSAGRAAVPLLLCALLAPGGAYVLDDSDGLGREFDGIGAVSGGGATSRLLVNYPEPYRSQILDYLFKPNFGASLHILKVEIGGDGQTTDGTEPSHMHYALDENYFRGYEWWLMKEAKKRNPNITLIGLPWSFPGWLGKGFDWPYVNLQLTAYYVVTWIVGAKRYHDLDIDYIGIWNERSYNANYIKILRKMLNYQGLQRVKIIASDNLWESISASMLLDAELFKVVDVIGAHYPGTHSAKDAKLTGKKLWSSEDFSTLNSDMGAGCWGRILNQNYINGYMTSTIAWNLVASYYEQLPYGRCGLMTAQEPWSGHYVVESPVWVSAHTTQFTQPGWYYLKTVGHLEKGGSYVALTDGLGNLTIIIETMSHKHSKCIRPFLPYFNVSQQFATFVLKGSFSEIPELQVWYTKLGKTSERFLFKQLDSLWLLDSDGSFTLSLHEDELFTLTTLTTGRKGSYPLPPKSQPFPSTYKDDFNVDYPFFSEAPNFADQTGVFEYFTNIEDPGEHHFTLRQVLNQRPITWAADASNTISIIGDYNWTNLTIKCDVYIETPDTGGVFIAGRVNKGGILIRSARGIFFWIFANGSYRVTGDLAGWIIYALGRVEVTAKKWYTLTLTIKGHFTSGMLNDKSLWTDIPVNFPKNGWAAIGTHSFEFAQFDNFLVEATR
For `COC(=O)c1ccc(C2C=C(c3ccc(Cl)cc3)Nc3nc4ccccc4n32)cc1` (stereo unspecified), the “activation” value is inactive: -9.8%.

On to `O=C(NCC(c1cccnc1)N1CCc2ccccc21)c1ccc(F)c(F)c1` (stereo unspecified), for which the “activation” value is inactive: -22.3%. The value for `Cc1cc(C)c2oc(C(=O)Nc3c(C)n(C)n(-c4ccccc4)c3=O)cc(=O)c2c1` was inactive: -15.4%. As to `CC(=O)N1CCc2c(sc3c2c(=O)n(-c2ccccc2C)c(=O)n3CC(=O)c2ccccc2)C1`, the “activation” value was inactive: -4.86%. The same measure for `Cc1ccc(-n2nc3cc(C)c(NC(=O)COc4ccccc4)cc3n2)cc1`: inactive: -16.4%; for `Cc1ccc(C(=O)NCC(=O)OCc2cc(=O)n3c(C)csc3n2)cc1`: inactive: 1.57%.

`Cc1cn(C)c(CC(=O)N2CCN(c3cccc(C(F)(F)F)c3)CC2)c1C(=O)O`: the “activation” value was inactive: -8.43%.

Turning to `CCc1cc2c(cc3c(=O)n(CC(=O)NC4CCCCC4)nc(CC)n32)s1`, the “activation” value was inactive: -27%. The same measure for `CCOC(=O)CCN(c1ccccc1)S(=O)(=O)c1cc(-c2cc(C)no2)ccc1C`: inactive: 6.76%.

As for `Cc1ccc(-n2cc3c(c2-c2ccccc2Br)c(=O)n(C)c(=O)n3C)cc1N`, the “activation” value was inactive: -22.1%. The same measure for `CC(C)n1cc2c(c1-c1ccccc1Cl)c(=O)n(C)c(=O)n2C`: inactive: -19.9%. `Cc1ccc(C)c(NC(=O)Cn2c(=O)n(-c3ccccc3C)c(=O)c3c2c2cc(C)ccc2n3C)c1`: the “activation” value is inactive: -4.97%. The same measure for `Cc1ccc(C(C)C)c(OCC(=O)NCC2(N3CCOCC3)CCCCC2)c1`: inactive: -15.1%; for `Cc1cccc(C(=O)Nc2cccc(OCc3cc(=O)n4cc(C)sc4n3)c2)c1`: inactive: -12%. The value for `COc1ccccc1-c1nc2c(c(SCC(=O)Nc3ccccc3F)n1)Cc1c(CO)cnc(C)c1O2` was inactive: -14.1%; that for `COc1ccccc1N1CCN(CCCNC(=O)c2nnc(Cc3c(F)cccc3Cl)o2)CC1` was inactive: -13.4%. The same measure for `CC(O)CNC(=O)C(=O)Nc1c2c(nn1-c1ccc(Cl)cc1)CSC2` (stereo unspecified): inactive: -13%. As for `CCOc1ccc(CCNC(=O)CS(=O)(=O)Cc2nc(-c3cccc(Cl)c3)oc2C)cc1`, the “activation” value is inactive: 11%. The value for `COc1ccc(NC(=O)C2CCCN(C(=O)c3cnn(-c4ccccc4)c3-n3cccc3)C2)cc1` (stereo unspecified) was inactive: -0.555%. The same measure for `COc1ccc(-c2cc(-c3ccccc3)c(C#N)c(SCC(O)CS(=O)(=O)Cc3ccccc3)n2)cc1` (stereo unspecified): inactive: -6.55%. The value for `Cc1ccc2c(=O)cc(C(=O)N(Cc3ccccc3Cl)C3CCS(=O)(=O)C3)oc2c1` (stereo unspecified) was inactive: -2.2%; that for `CCN1CCN(CCCNC(=O)Cn2c(-c3cccs3)cc3ccccc32)CC1` was inactive: -6.97%; that for `Cc1ccc(NC(=O)Cn2c(=O)n(Cc3ccco3)c(=O)c3ccccc32)cc1` was inactive: 4.4%. With `CCOc1ccc(CNC(=O)c2cc3c(=O)n(C)c4ccccc4c3s2)cc1`, the “activation” value was inactive: 0.0109%. The same measure for `O=C(c1ccc2c(c1)OCCO2)N(Cc1cccnc1)c1nc2ccc(F)cc2s1`: inactive: -12%; for `O=c1[nH]c(SCc2ccc(F)cc2)nc2c1CCCC2`: inactive: -8.18%.
